From PubChem BioAssay AID1347070 (National Center for Advancing Translational Sciences (NCATS), 2019)
The whole screen tested about 94,000 compounds, of which about 20 (0.02%) were called active. Inconclusive results, whose numbers are uncertain, are shown with a selection of clear calls. Calls come from the whole dose curve; as a rule, active = well fitted activation curve with a large enough effect; inconclusive = small, poorly fitted or top-dose-only effect; inactive = flat fitted curve, though single readings scatter. No potency is given beside an inconclusive call; the fits are too rough.

Test: qHTS of alpha-syn Inhibitors: NCGC Sytravon Library Screen; for growth rescue (activation): 0% is about no effect
Details: S. cerevisiae alpha-synuclein toxicity rescue, BacTiter-Glo growth, 24 h; growth rescue (activation): at 46.1 µM (top of the series)
In short: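 Growth restoration measured by BacTiter-Glo luminescence after 24 hr at 30 deg C; alpha-synuclein yeast, raffinose-pregrown to mid-log, were added at OD600=0.02 in galactose medium onto pinned compounds.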
Potency is the fitted concentration of half-maximal effect; tags give direction and shape of the fitted curve.

**Q.** With `CCOC(=O)c1ccc(NC(=O)c2c(NCc3cccs3)sc3c2CCCCC3)cc1` as the compound, how does the Potency read?
**A.** inactive

**Q.** With `CC(C)(C)OC(=O)N1CCC(c2c(C(=O)NCc3ccc(F)cc3)cnn2-c2ccc(F)cc2)CC1` as the compound, how does the Potency read?
**A.** inconclusive [activator, single point]

**Q.** Which Potency does the source give for `CCc1ccc(OCCCSc2nc(-c3ccc(C(C)(C)C)cc3)nc3cc(=O)[nH]n23)cc1` here?
**A.** inactive

**Q.** For `COc1ccc(-c2noc(N3CCC(C(=O)N4CCN(c5ccccc5OC)CC4)CC3)n2)cc1`, which Potency is on record?
**A.** inconclusive [activator, single point]

**Q.** Which Potency does the source give for `CC(CNC(=O)CCCn1c(=O)c2cccn2c2ccc(F)cc21)c1ccccc1` (stereo unspecified) here?
**A.** inconclusive [activator, single point]

**Q.** With `N#C/C(=C\c1cc(Br)c(O)c(Br)c1)c1nc2ccccc2c(=O)[nH]1` as the compound, how does the Potency read?
**A.** inactive

**Q.** For `COC(=O)c1ccc(NC(=O)CN(Cc2ccccc2)S(=O)(=O)c2ccc(Cl)cc2)cc1`, which Potency is on record?
**A.** inconclusive [activator, single point]

**Q.** With `CCc1nn2c(=O)c(S(=O)(=O)Nc3ccc(Br)cc3F)c(C)nc2s1` as the compound, how does the Potency read?
**A.** inconclusive [activator, single point]

**Q.** With `O=C(C1CCN(c2ncnc3c2nc2n3CCCCC2)CC1)N1CCN(c2ccc(Cl)cc2)CC1` as the compound, how does the Potency read?
**A.** inconclusive [activator, partial curve]

**Q.** Which Potency does the source give for `O=C(Cc1ccc(F)cc1)NCCc1csc2nc(-c3ccccc3F)nn12` here?
**A.** inactive

**Q.** With `Cc1ccc(N(C(=O)Cc2cccs2)C(C(=O)NCC2CCCO2)c2ccncc2)cc1` (stereo unspecified) as the compound, how does the Potency read?
**A.** inactive

**Q.** For `Cc1ccc2c(C)c(C(=O)N(Cc3ccc(N(C)C)cc3)Cc3ccco3)oc2c1C`, which Potency is on record?
**A.** inactive

**Q.** With `CC(C)CC1C(=O)N(Cc2cn(CCC3OCCO3)nn2)CCS(=O)(=O)N1Cc1ccc(-c2ccc(F)cc2)cc1` (stereo unspecified) as the compound, how does the growth rescue (activation) read?
**A.** inconclusive: 45.4% [activator]

**Q.** With `Cn1cnnc1SCC(=O)NNC(=O)COc1ccc(Br)cc1` as the compound, how does the Potency read?
**A.** inactive

**Q.** With `Cc1ccc(S(=O)(=O)Nc2ccc3nc(-c4cccc(Cl)c4)oc3c2)cc1` as the compound, how does the Potency read?
**A.** inconclusive [activator, single point]

**Q.** With `CSc1ccc(CCNC(=O)CCCn2c(=O)c3cccn3c3ccccc32)cc1` as the compound, how does the Potency read?
**A.** inactive

**Q.** With `CCn1c(=O)c2cc(C(=O)N(C)c3ccccc3F)sc2c2ccccc21` as the compound, how does the growth rescue (activation) read?
**A.** inconclusive: 30.2% [activator]

**Q.** Which Potency does the source give for `Cc1ccc(S(=O)(=O)Cc2nc(-c3ccc(C(=O)NCCCOC(C)C)cc3)oc2C)cc1` here?
**A.** inactive

**Q.** Which growth rescue (activation) does the source give for `O=C(O)CSc1ncnc2sc(-c3ccccc3)cc12` here?
**A.** inconclusive: 32.8% [activator]

**Q.** For `CCOc1ccc(S(=O)(=O)NCCc2csc(-c3ccc(Cl)cc3)n2)cc1`, which Potency is on record?
**A.** inconclusive [activator, single point]

**Q.** Which Potency does the source give for `O=C(c1c2c(nc3ccccc13)C(=O)N(C1CCCCC1)C2)N1CCN(c2ccc(F)cc2)CC1` here?
**A.** inactive

**Q.** With `COc1ccc(C(=O)NCCn2cc(SCc3cccc(F)c3)c3ccccc32)cc1OC` as the compound, how does the Potency read?
**A.** inconclusive [activator, single point]

**Q.** Which Potency does the source give for `O=C(Cn1cnc2onc(-c3ccc(F)cc3)c2c1=O)N1CCN(c2ccc(F)cc2)CC1` here?
**A.** inconclusive [activator, single point]

**Q.** With `CCCCN(C)C(=O)CSc1c2c(nc3ccc(Cl)cc13)CCCC2` as the compound, how does the Potency read?
**A.** inconclusive [activator, single point]

**Q.** With `CC(=O)c1ccc(NC(=O)c2ccc(-c3nc(CSc4ccc(C)cc4)c(C)o3)cc2)cc1` as the compound, how does the growth rescue (activation) read?
**A.** inconclusive: 31.2% [activator]

**Q.** With `COCCNC(=O)c1c(NC(=O)c2cc(=O)c3cc(C)cc(C)c3o2)sc2c1CCCC2` as the compound, how does the Potency read?
**A.** inactive

**Q.** For `CCc1ccc(NC(=O)CN2C(=O)CCSc3ccccc32)cc1`, which Potency is on record?
**A.** inactive

**Q.** With `Cc1cccc(N2CCN(S(=O)(=O)c3ccc(-c4cc(C(F)(F)F)on4)s3)CC2)c1C` as the compound, how does the Potency read?
**A.** inactive

**Q.** Which growth rescue (activation) does the source give for `CCOc1ccc(Cn2c(=O)sc3ccccc32)cc1OC` here?
**A.** inconclusive: 175% [activator]

**Q.** For `COc1ccc(NC(=O)CC2C(=O)NC3CCCCC3N2C(=O)c2ccc(F)cc2)cc1` (stereo unspecified), which Potency is on record?
**A.** inactive

**Q.** Which Potency does the source give for `Cc1cccc(Nc2nnc(-c3ccc(C)c(S(=O)(=O)NCC4CCCO4)c3)c3ccccc23)c1` (stereo unspecified) here?
**A.** inactive

**Q.** With `C=Cc1ccc(Cn2nc(-c3ccc(C)cc3)ccc2=O)cc1` as the compound, how does the Potency read?
**A.** inconclusive [activator, single point]

**Q.** And the growth rescue (activation)?
**A.** inconclusive: 82% [activator]

**Q.** Which Potency does the source give for `CCn1c(SCCOc2ccccc2F)nc2ccccc21` here?
**A.** inconclusive [activator, single point]

**Q.** For `Cc1ccc(C(C)C)c(OCC(=O)N2CCC(c3nc4ccccc4o3)CC2)c1`, which Potency is on record?
**A.** inconclusive [activator, single point]

**Q.** For `COc1ccccc1CNC(=O)C1CCCN(c2nnc(-n3c(C)ccc3C)s2)C1` (stereo unspecified), which Potency is on record?
**A.** inactive

**Q.** With `O=C(c1ccc(N2CCCC2=O)cc1)N1CCN(c2ccc(C(F)(F)F)cc2[N+](=O)[O-])CC1` as the compound, how does the Potency read?
**A.** inactive

**Q.** For `COc1cc(/C=C(\C#N)c2nc3ccccc3c(=O)[nH]2)cc(OC)c1OC`, which Potency is on record?
**A.** inconclusive [activator, single point]

**Q.** With `CCCCNc1nc2c(S(=O)(=O)c3ccc(C)c(C)c3)nnn2c2ccsc12` as the compound, how does the Potency read?
**A.** inconclusive [activator, single point]

**Q.** Which Potency does the source give for `CCN1CCOC(=O)C1CC(=O)Nc1cc(C)cc(C)c1` (stereo unspecified) here?
**A.** inactive

**Q.** Which Potency does the source give for `Cc1cccc(N2CCN(C(=O)CN3CCSc4ccccc43)CC2C)c1` (stereo unspecified) here?
**A.** inconclusive [activator, partial curve]

**Q.** With `CCOC(=O)CSc1nnc2n(-c3ccccc3)c(=O)c3c4c(sc3n12)CC(C(C)(C)C)CC4` (stereo unspecified) as the compound, how does the Potency read?
**A.** inconclusive [activator, single point]

**Q.** Which Potency does the source give for `O=S(=O)(Nc1cccc(C(F)(F)F)c1)c1ccc(-c2cnc(C3CC3)o2)cc1` here?
**A.** inconclusive [activator, single point]

**Q.** Which growth rescue (activation) does the source give for `Cc1ccc(OCC(=O)OC2=C(C(=O)c3ccccc3)N(C)S(=O)(=O)c3ccccc32)cc1` here?
**A.** inconclusive: -67.9% [activator]

**Q.** With `CCCN(Cc1cccs1)C(=O)Nc1cc(OC)ccc1OC` as the compound, how does the growth rescue (activation) read?
**A.** inconclusive: 33% [activator]

**Q.** With `Oc1ccccc1C(Nc1nccs1)c1ccc2cccnc2c1O` (stereo unspecified) as the compound, how does the growth rescue (activation) read?
**A.** inconclusive: 104% [activator]
